{
  "source": "PubChem BioAssay AID504333",
  "about": "(National Center for Advancing Translational Sciences (NCATS), 2011)",
  "note": "The whole screen tested about 360,000 compounds, of which about 16,000 (4.4%) were called active. This list was built around the results that the source calls inconclusive (neither active nor inactive); the mix of calls is not that of the screen. Calls come from the whole dose curve; as a rule, active = well fitted inhibition curve with a large enough effect; inconclusive = small, poorly fitted or top-dose-only effect; inactive = no such curve, though single readings can be large or run the other way. Potencies of inconclusive entries are doubtful fits and often do not repeat. % is set by controls: 0 for no effect and ±100 for the full control effect; potency is the fitted concentration of half-maximal effect; tags give direction and shape of the fitted curve.",
  "data": [
    {"target": "Bromodomain adjacent to zinc finger domain protein 2B (Homo sapiens) (UniProt Q9UIF8)", "sequence (Q9UIF8 whole entry, looked up, the tested form may be a part)": "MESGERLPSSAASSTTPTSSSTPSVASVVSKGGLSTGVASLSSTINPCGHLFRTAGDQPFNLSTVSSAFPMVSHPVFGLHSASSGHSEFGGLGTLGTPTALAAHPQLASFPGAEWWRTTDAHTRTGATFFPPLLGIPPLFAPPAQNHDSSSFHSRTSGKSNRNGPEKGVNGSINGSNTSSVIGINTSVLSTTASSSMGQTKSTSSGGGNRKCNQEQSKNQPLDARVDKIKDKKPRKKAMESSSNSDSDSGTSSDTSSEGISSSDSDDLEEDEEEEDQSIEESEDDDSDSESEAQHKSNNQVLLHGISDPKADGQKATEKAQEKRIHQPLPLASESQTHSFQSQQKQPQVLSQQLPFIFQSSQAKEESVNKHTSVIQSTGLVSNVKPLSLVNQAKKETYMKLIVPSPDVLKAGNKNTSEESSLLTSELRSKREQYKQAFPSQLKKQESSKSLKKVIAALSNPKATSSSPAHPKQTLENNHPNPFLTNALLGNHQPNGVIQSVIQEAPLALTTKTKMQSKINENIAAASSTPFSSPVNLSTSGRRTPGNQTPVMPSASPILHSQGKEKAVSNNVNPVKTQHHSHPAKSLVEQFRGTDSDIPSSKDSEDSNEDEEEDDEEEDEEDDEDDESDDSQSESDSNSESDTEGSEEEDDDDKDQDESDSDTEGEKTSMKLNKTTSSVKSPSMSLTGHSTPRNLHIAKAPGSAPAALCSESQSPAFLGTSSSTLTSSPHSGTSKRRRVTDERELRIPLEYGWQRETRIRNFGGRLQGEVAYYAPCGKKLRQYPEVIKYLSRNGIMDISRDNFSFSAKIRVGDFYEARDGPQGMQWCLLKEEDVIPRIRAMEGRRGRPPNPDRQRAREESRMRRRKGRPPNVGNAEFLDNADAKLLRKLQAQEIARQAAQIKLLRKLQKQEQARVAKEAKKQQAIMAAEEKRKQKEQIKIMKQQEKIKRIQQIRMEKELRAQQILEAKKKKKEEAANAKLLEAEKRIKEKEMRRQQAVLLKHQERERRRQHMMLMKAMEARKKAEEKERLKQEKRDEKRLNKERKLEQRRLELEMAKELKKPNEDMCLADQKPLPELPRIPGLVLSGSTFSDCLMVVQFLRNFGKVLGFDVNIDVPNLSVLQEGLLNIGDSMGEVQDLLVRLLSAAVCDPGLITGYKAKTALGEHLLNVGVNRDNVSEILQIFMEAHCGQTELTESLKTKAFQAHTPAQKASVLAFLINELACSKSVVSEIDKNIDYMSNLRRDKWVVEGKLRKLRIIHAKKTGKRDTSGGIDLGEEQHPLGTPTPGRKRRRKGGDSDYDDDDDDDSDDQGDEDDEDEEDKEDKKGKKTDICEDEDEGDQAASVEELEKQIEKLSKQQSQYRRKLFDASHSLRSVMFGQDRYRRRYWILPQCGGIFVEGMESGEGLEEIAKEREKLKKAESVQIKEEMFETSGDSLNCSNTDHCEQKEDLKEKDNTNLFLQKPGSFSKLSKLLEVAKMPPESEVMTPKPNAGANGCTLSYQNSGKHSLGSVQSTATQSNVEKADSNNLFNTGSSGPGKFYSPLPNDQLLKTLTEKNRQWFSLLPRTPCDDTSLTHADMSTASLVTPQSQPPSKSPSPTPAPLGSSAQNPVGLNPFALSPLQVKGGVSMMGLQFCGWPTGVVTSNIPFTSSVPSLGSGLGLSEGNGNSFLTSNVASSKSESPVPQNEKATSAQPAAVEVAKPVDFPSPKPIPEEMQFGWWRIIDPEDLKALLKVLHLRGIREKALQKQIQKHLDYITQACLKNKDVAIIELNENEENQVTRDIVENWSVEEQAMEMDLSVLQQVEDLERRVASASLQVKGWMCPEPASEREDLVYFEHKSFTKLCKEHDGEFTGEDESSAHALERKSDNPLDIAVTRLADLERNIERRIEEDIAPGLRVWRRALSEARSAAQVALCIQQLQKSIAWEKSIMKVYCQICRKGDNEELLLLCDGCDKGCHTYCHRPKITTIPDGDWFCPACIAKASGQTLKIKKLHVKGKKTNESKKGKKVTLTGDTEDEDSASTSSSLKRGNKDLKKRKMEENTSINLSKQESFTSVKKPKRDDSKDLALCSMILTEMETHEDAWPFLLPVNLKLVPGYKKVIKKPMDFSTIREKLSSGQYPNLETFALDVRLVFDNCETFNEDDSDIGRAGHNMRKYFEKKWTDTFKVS", "assay": "qHTS Assay for Inhibitors of BAZ2B; note: nearly all actives have a fitted effect of over 60% in size", "settings": "AlphaScreen BAZ2B-H3K14Ac peptide displacement; activity change, negative = inhibition: at 114 µM (top of the series)", "summary_of_the_method": "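Inhibition is scored as reduced AlphaScreen emission. The BAZ2B/b-H3(5-23)K14Ac complex (50 nM each) in PBS pH 7.4, 0.01% Tween-20 meets compound (up to 110 uM) for 30 min at RT before bead addition.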", "values": [
      {"smiles": "COCCNC(=O)CN(Cc1ccc2c(c1)OCO2)C(=O)CCC(=O)Nc1nccs1", "activity change, negative = inhibition": "inactive: 8.29%"},
      {"smiles": "CCOc1cc(/C=N/N=C2/NC(=O)C(CC(=O)O)S2)ccc1OS(=O)(=O)c1ccc(C)cc1", "note": "(stereo unspecified)", "Potency": "inconclusive: 70.8 µM [inhibitor, partial curve]"},
      {"smiles": "Cc1ccc(C(C)C)c(OCC#CCN2CCOCC2)c1", "Potency": "active: 50.1 µM"},
      {"smiles": "S=C(c1ccc(Br)cc1)N1CCN(Cc2ccccc2)CC1", "Potency": "inconclusive: 70.8 µM [inhibitor, single point]"},
      {"smiles": "O=C(CSc1ccccc1C(=O)O)NCc1ccco1", "Potency": "inconclusive: 100 µM [inhibitor, single point]"},
      {"smiles": "Clc1ccccc1OCCCCN1CCCC1", "Potency": "inconclusive: 89.1 µM [inhibitor, single point]"},
      {"smiles": "COc1ccc(NC(=O)c2c(NCc3cccs3)sc3c2CCC(C)C3)c(OC)c1", "note": "(stereo unspecified)", "Potency": "inconclusive: 17.8 µM [inhibitor, full curve]"},
      {"smiles": "CC1(C)CC(=O)C2=C(C1)N(c1cccc(Cl)c1)C(=O)NC2(C(F)(F)F)C(F)(F)F", "activity change, negative = inhibition": "inactive: 9.26%"},
      {"smiles": "CN(CCOc1ccccc1)C(=O)CCc1c[nH]c2ccccc12", "Potency": "inconclusive: 44.7 µM [inhibitor, partial curve]"},
      {"smiles": "CCCCN1CC(c2nc3ccccc3n2CCCCOc2cc(C)ccc2C)CC1=O", "note": "(stereo unspecified)", "Potency": "inconclusive: 89.1 µM [inhibitor, single point]"},
      {"smiles": "O=C(N/N=C/c1cccc2ccccc12)c1ccncc1", "Potency": "inconclusive: 89.1 µM [inhibitor, single point]"},
      {"smiles": "CC(C)(C)Cc1nnc(NC(=O)CSc2ccccc2)s1", "Potency": "inconclusive: 50.1 µM [inhibitor, partial curve]"},
      {"smiles": "COc1ccc(-n2nc(C(=O)NCC(=O)NCc3ccc(F)cc3)c3ccccc3c2=O)cc1OC", "Potency": "inconclusive: 89.1 µM [inhibitor, single point]"},
      {"smiles": "CN(C)c1ccc(N/C=C/C(=O)C(F)(F)F)cc1", "Potency": "active: 28.2 µM"},
      {"smiles": "Cn1c(=O)c2[nH]cnc2n(-c2ccccc2)c1=O", "Potency": "inconclusive: 100 µM [inhibitor, single point]"},
      {"smiles": "CCOC(=O)Nc1ccc2c(c1)N(C(=O)CCN1CCN(CCO)CC1)c1ccccc1CC2", "Potency": "inconclusive: 89.1 µM [inhibitor, single point]"},
      {"smiles": "Clc1ccc(C2=NN(c3ccccc3)C(c3ccco3)C2)cc1", "note": "(stereo unspecified)", "activity change, negative = inhibition": "inactive: 13.8%"},
      {"smiles": "CC(Sc1ccc(Cl)cc1)C(=O)NNC(=O)c1ccncc1", "note": "(stereo unspecified)", "activity change, negative = inhibition": "inactive: -1.71%"},
      {"smiles": "Oc1ccc(-c2csc(Nc3cccnc3)n2)cc1", "Potency": "inconclusive: 44.7 µM [inhibitor, partial curve]"},
      {"smiles": "COc1ccc(NC(=O)COC(=O)Cc2ccccc2[N+](=O)[O-])cc1OC", "activity change, negative = inhibition": "inactive: -17.1%"},
      {"smiles": "CC(C)c1ccc(NC2CCCN(C(=O)CCN3Cc4ccccc4C3=O)C2)cc1", "note": "(stereo unspecified)", "Potency": "inconclusive: 89.1 µM [inhibitor, single point]"},
      {"smiles": "CN(c1ccc(-c2csc(NC(=O)C3CC(=O)N(Cc4ccco4)C3)n2)cc1)S(C)(=O)=O", "note": "(stereo unspecified)", "Potency": "inconclusive: 79.4 µM [inhibitor, single point]"},
      {"smiles": "CC(O)CNc1nc2sc3c(c2c(=O)n1CCc1ccccc1)CCCCC3", "note": "(stereo unspecified)", "Potency": "inconclusive: 50.1 µM [inhibitor, partial curve]"},
      {"smiles": "CS(=O)(=O)N(CC(=O)NCc1ccco1)c1ccc(OCc2ccccc2)cc1", "Potency": "active: 70.8 µM"},
      {"smiles": "Cc1ccc(NC(=O)c2c(C)cc(C)nc2SCC(=O)Nc2ccc(Br)cc2)cc1", "activity change, negative = inhibition": "inactive: 0.581%"},
      {"smiles": "COc1ncnc2c1NC1=C(S2)C(=NCCC(=O)O)CC(C)(C)C1", "Potency": "inconclusive: 79.4 µM [inhibitor, single point]"},
      {"smiles": "C#CCOCCOCCOCCNc1nc(N2CCN(C(=O)CCCCCCCCCCNC(=O)[C@H](CCCCN)n3cc(C)nn3)CC2)nc(N2CCN(C(=O)CCCCCCCCCCNC(=O)[C@@H]([C@H](C)CC)n3cc(CCCCCN)nn3)CC2)n1", "Potency": "active: 56.2 µM"},
      {"smiles": "COc1ccccc1NC(=O)Oc1cccc(OC(=O)c2ccccc2)c1", "activity change, negative = inhibition": "inactive: -9.32%"},
      {"smiles": "CC(=O)c1cccc(Nc2nc(-c3cccnc3)cs2)c1", "Potency": "inconclusive: 89.1 µM [inhibitor, single point]"},
      {"smiles": "Cc1ccc(O)c(NS(=O)(=O)c2cccc3nsnc23)c1", "Potency": "active: 44.7 µM"},
      {"smiles": "COc1cccc(NC(=S)N/N=C2\\CC3CCC2(C)C3(C)C)c1", "note": "(stereo unspecified)", "Potency": "inconclusive: 44.7 µM [inhibitor, partial curve]"},
      {"smiles": "O=C(N/C(=C\\c1ccc(O)cc1)C(=O)N1CCCCC1)c1ccccc1", "Potency": "inconclusive: 39.8 µM [inhibitor, single point]"},
      {"smiles": "COc1ccc(CCNC(=O)c2ccc(-c3ccc([N+](=O)[O-])cc3)o2)cc1OC", "activity change, negative = inhibition": "inactive: -22.4%"},
      {"smiles": "COc1cc(C(=O)NCC(c2ccc3c(c2)OCO3)N2CCOCC2)cc(OC)c1OC", "note": "(stereo unspecified)", "activity change, negative = inhibition": "inactive: 0.234%"},
      {"smiles": "NCCC(=O)NCCc1cnc[nH]1", "activity change, negative = inhibition": "inactive: 5.1%"},
      {"smiles": "NS(=O)(=O)c1ccc(CNC(=O)/C=C/c2ccco2)cc1", "Potency": "active: 56.2 µM"},
      {"smiles": "COc1cc(C)ccc1OCCOc1cc(C)ccc1Cl", "Potency": "inconclusive: 31.6 µM [inhibitor, single point]"},
      {"smiles": "CCOc1cc(C(N)=O)cc(Cl)c1OCc1ccccc1", "Potency": "inconclusive: 89.1 µM [inhibitor, single point]"},
      {"smiles": "CC(=O)Nc1nc2n(n1)C(c1ccc(F)cc1)C=C(c1ccc(Cl)cc1)N2", "note": "(stereo unspecified)", "Potency": "inconclusive: 89.1 µM [inhibitor, single point]"},
      {"smiles": "Cc1csc(NC(=O)CSc2nc3sc(C)c(C)c3c(=O)[nH]2)n1", "Potency": "inconclusive: 100 µM [inhibitor, single point]"},
      {"smiles": "Cc1cccc(C(=O)OCC(=O)N2CCCCCC2)c1", "activity change, negative = inhibition": "inactive: -3.13%"},
      {"smiles": "O=C(CN1CCCC1)NC(c1ccccc1)c1ccccc1", "activity change, negative = inhibition": "inactive: -0.478% [at 0.457 µM]"},
      {"smiles": "Cc1ccc(NC2=C/C(=N\\S(=O)(=O)c3cccs3)c3ccccc3C2=O)c(C)c1", "Potency": "active: 3.55 µM"},
      {"smiles": "Cc1ccc(-n2c(C)cc(C(=O)C(=O)Nc3ccccc3)c2C)c(C)c1", "activity change, negative = inhibition": "inactive: 0.394%"},
      {"smiles": "CC(C)c1ccc(/C=C2\\SC(=S)N(CCC(=O)NCCCn3ccnc3)C2=O)cc1", "Potency": "inconclusive: 11.2 µM [inhibitor, partial curve]"},
      {"smiles": "O=C(Nc1ccc(N2CCCC2)cc1)c1cccc(-c2cc3ccccc3oc2=O)c1", "Potency": "inconclusive: 31.6 µM [inhibitor, full curve, poor fit]"},
      {"smiles": "CCOC(=O)c1c(NC(=O)CN2CCN(C(=O)C3CCCO3)CC2)sc(C)c1C", "note": "(stereo unspecified)", "Potency": "inconclusive: 79.4 µM [inhibitor, single point]"},
      {"smiles": "N#C/C(=N\\Nc1ccc(Cl)cc1)C(=N)N1CCCCC1", "Potency": "inconclusive: 11.2 µM [inhibitor, full curve, poor fit]"},
      {"smiles": "CC(=O)C1=C(O)C(=O)N(CCCn2ccnc2)C1c1ccc(C)cc1", "note": "(stereo unspecified)", "Potency": "inconclusive: 89.1 µM [inhibitor, single point]"},
      {"smiles": "O=Cc1cn(-c2ccccc2)nc1-c1cc2cc(O)ccc2oc1=O", "Potency": "inconclusive: 89.1 µM [inhibitor, single point]"},
      {"smiles": "O=C(Nn1c(SCc2cccc([N+](=O)[O-])c2)nc2ccccc2c1=O)c1ccccc1", "Potency": "inconclusive: 20 µM [inhibitor, partial curve]"},
      {"smiles": "COc1cccc(C(=O)Nc2cccc(-c3ccc4nncn4n3)c2)c1OC", "Potency": "inconclusive: 89.1 µM [inhibitor, single point]"},
      {"smiles": "CCOC(=O)c1cccc(NC(=O)CSc2nnc(CNc3ccc(C)cc3)n2CC)c1", "Potency": "active: 50.1 µM"},
      {"smiles": "Cc1cc(/C=C2\\SC(=Nc3ccc(N4CCOCC4)cc3)N(C)C2=O)c(C)n1-c1cccnc1", "Potency": "inconclusive: 50.1 µM [inhibitor, partial curve]"},
      {"smiles": "O=C(Nc1ccc(N2CCOCC2)cc1)C1CC(O)CN1S(=O)(=O)c1ccc(Cl)cc1", "note": "(stereo unspecified)", "Potency": "inconclusive: 79.4 µM [inhibitor, partial curve]"},
      {"smiles": "COCCCNC(=O)c1cc(Nc2ccc(OC)cc2OC)nc2ccccc12", "Potency": "inconclusive: 79.4 µM [inhibitor, single point]"},
      {"smiles": "CCOc1ccc(C(=O)N2CCN(c3cnn(-c4ccccc4)c(=O)c3Cl)CC2)cc1", "activity change, negative = inhibition": "inactive: 0.11%"},
      {"smiles": "O=C(O)c1cccc(-c2ccc(/C=N/NC(=O)c3cccnc3)o2)c1", "Potency": "inconclusive: 89.1 µM [inhibitor, single point]"},
      {"smiles": "N#CC(C(=O)c1ccccc1Cl)=C1SCCCS1", "Potency": "inconclusive: 79.4 µM [inhibitor, single point]"},
      {"smiles": "CCOC(=O)N1CCN(C(=O)c2ccc3c(=O)n(-c4ccccc4F)c(=S)[nH]c3c2)CC1", "activity change, negative = inhibition": "inactive: -15.2%"},
      {"smiles": "C=CCNc1nc(N)c(C(=O)c2ccc3c(c2)OCO3)s1", "Potency": "inconclusive: 44.7 µM [inhibitor, partial curve]"},
      {"smiles": "CCC1Nc2ncnc(N3CCN(c4ccccc4)CC3)c2N(Cc2ccc(Cl)cc2)C1=O", "note": "(stereo unspecified)", "Potency": "inconclusive: 44.7 µM [inhibitor, partial curve]"},
      {"smiles": "Cc1c(Br)c([N+](=O)[O-])nn1CCCC(=O)N1CCN(c2ccccc2)CC1", "activity change, negative = inhibition": "inactive: -11.7%"},
      {"smiles": "CCOc1ccc(N2CC(NC(=O)c3ccco3)CC2=O)cc1", "note": "(stereo unspecified)", "activity change, negative = inhibition": "inactive: 4.21%"},
      {"smiles": "COc1cccc2cc(C(C)N(CCCN3CCOCC3)C(=S)Nc3ccc(C)c(C)c3)oc12", "note": "(stereo unspecified)", "Potency": "inconclusive: 44.7 µM [inhibitor, partial curve]"},
      {"smiles": "Cc1ccc(-n2c(C)cc(-c3csc(N)n3)c2C)cc1", "Potency": "active: 56.2 µM"},
      {"smiles": "C=CCNCCOCCOc1ccc(C)cc1Br", "Potency": "active: 56.2 µM"},
      {"smiles": "Cc1cc2nc(-c3cccc(NC(=O)c4cccc5ccccc45)c3)oc2cc1C", "activity change, negative = inhibition": "inactive: -1.04%"},
      {"smiles": "COC(=O)C1=C(C)NC(=O)/C1=C\\c1cc(C)n(-c2ccccc2F)c1C", "Potency": "active: 44.7 µM"},
      {"smiles": "COc1ccccc1NC(=O)Cn1cc(S(=O)(=O)Cc2ccccc2)c2ccccc21", "activity change, negative = inhibition": "inactive: -27%"},
      {"smiles": "Cc1cccc(OCCCC(=O)Nc2ccc(S(=O)(=O)Nc3nccs3)cc2)c1C", "Potency": "inconclusive: 39.8 µM [inhibitor, partial curve]"}
    ]}
  ]
}
